# Reference: PubChem BioAssay (NCATS)
# Values joined by “and” are separate entries in the source; they are usually repeats but may differ in a detail not shown here. Equal entries are not always repeated. This list was built around the results that the source calls inconclusive (neither active nor inactive); the mix of calls is not that of the screen. For some of these results: Potencies of inconclusive entries are doubtful fits and often do not repeat. Active and inactive are the calls of the source. Unless noted, the call rests on the fitted dose curve; in most records, active means well fitted curve in the direction sought with a large enough effect; inconclusive means small, poorly fitted or top-dose-only effect, or another doubt; inactive means no such curve, though single readings can be large; an effect the other way counts as inactive or inconclusive.
# Key:
# [1] = target: 3',5'-cyclic-AMP phosphodiesterase 4B (Homo sapiens) (UniProt Q07343); experiment: qHTS Assay for Inhibitors of PDE-IV (AID 607; active means well fitted activation curve with a large enough effect in the main read-out, with a control signal flat, not every such curve was filed as active; inconclusive means small, poorly fitted or top-dose-only effect, or effect the other way, or a change in a side signal; further: potency means the concentration at half of the fitted maximal effect); conditions: HEK293 ACTOne CNG channel cells, membrane potential fluorescence; activation (PDE inhibition): at 22.9 µM (top of the series)
# Method in brief: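 Live HEK293 cells with a modified cyclic nucleotide-gated (CNG) channel report intracellular cAMP via membrane-potential dye fluorescence (ex 535/em 590 nm). Endogenous PDE-IV was targeted. Compounds were tested at up to 22.9 uM final; RO 20-1724 100 uM served as control.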
# [2] = P-glycoprotein substrates identified in KB-3-1 adenocarcinoma cell line, qHTS therapeutic library screen (AID 1346986);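 further: potency means the concentration at half of the fitted maximal effect; potency is for cytotoxicity meaning loss of cell viability; nearly all actives have a fitted effect of over 60% in size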
# Method in brief: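 Compounds were tested in dose-response against KB-3-1 and KB-8-5-11 cells at 37 degree C for 72 h, and viability was measured by luminescence. AC50 values came from curve fitting with class-based activity calls.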
# [3] = target: M-phase phosphoprotein 8 (Homo sapiens) (UniProt Q99549); experiment: qHTS Validation Assay for Inhibitors for MPP8 Chromodomain Interactions with Methylated Histone Tails (AID 488949); further: potency means the concentration at half of the fitted maximal effect; nearly all actives have a fitted effect of over 55% in size
# Method in brief: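 Chemiluminescent proximity assay: histidine-tag capture via nickel acceptor beads, biotin peptide via streptavidin donor beads. Protein and peptide each at 50 nM, pH 7.4, with 30 min incubations at room temperature for complex formation, compound exposure and bead binding.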
# [4] = Validation screen for small molecules that induce DNA re-replication in SW480 colon adenocarcinoma cells (AID 504364); further: potency means the concentration at half of the fitted maximal effect
# Method in brief: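 SW480 cells seeded at 250 per well were exposed to compound or DMSO for 48 hr at 37 C, 5% CO2, then stained with Hoechst for 40 min. DNA content per nucleus was imaged (405 nm ex, 500-530 nm em).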
# [5] = target: Peptidyl-prolyl cis-trans isomerase NIMA-interacting 1 (Homo sapiens) (UniProt Q13526); experiment: qHTS Validation Assay to Find Inhibitors of Pin1 (AID 504536; active means well fitted inhibition curve with a large enough effect in the polarisation, with a control signal flat, not every such curve was filed as active; inconclusive means small, poorly fitted or top-dose-only effect, or effect the other way; the % refers to the polarisation; further: potency means the concentration at half of the fitted maximal effect)
# Method in brief: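 Fluorescence polarization competition: compounds (titration) displace HiFluor-488-labeled Pin1-1b peptide from Pin1 (0.3 uM final) in pH 7.5 HEPES buffer with DTT, 10 min at room temperature; %Activity normalized to no-enzyme wells, curves fitted.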
# [6] = target: Atrial natriuretic peptide receptor 2 (Homo sapiens) (UniProt P20594); experiment: Natriuretic polypeptide receptor (hNpr2) antagonism - Pilot subtype selectivity assay (AID 1347050; calls by dose curve; further: potency means the concentration at half of the fitted maximal effect; on activity change, negative = inhibition: on the % scale 0 is the no-effect control and ±100 the full control effect)
# Method in brief: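 HEK293 cells expressing hNpr2 and a GloSensor cGMP luciferase sensor, 1500/well, preloaded 2 h with 2% GloSensor reagent, compound 30 min, then 1 nM hNppC for 20 min. Antagonism from luminescence after versus baseline pre-read; LOPAC in 1:5 titrations.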
# [7] = target: Tyrosine-protein phosphatase non-receptor type substrate 1 (Homo sapiens) + Leukocyte surface antigen CD47 (Homo sapiens) (UniProt P78324+Q08722); experiment: CD47-SIRPalpha protein protein interaction - Alpha assay qHTS validation (AID 1347059);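 further: bead proximity luminescence from CD47 binding SIRPalpha after compound preincubation with SIRPalpha; potency means the concentration at half of the fitted maximal effect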
# Method in brief: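 Biotinylated Avi-tagged SIRPalpha (25 nM) preincubated 30 min with compound, then His-tagged CD47 (12.5 nM) added 30 min; AlphaScreen with Ni-NTA acceptor and streptavidin donor beads. PBS pH 7.4, 0.05% IGEPAL, room temperature; 7-point titrations.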
# [8] = qHTS assay to identify inhibitors of the type 1 interferon - major histocompatibility complex class I in skeletal muscle: Counter screen cell viability and HiBit confirmation (AID 1347412); conditions: iHSKM muscle cells + IFN-b, HiBiT or CellTiter-Glo, 24 h; further: nearly all actives have a fitted effect of over 60% in size; further: potency means the concentration at half of the fitted maximal effect; on activity change, negative = inhibition: on the % scale 0 is the no-effect control and ±100 the full control effect
# Method in brief: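 Human myoblast knock-in line, 4.0 ng/ml IFN-beta stimulation, 24 h compound treatment. Endpoints: HiBiT lytic luminescence (HLA-B level) and CellTiter Glo (ATP). Dosing 12 concentrations, 3-fold steps, 46 uM highest final.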
# [9] = Quantitative high throughput screen for delayed death inhibitors of the malarial parasite plastid, 48 hour incubation (AID 488752); further: potency means the concentration at half of the fitted maximal effect; nearly all actives have a fitted effect of over 65% in size
# Method in brief: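 Erythrocytes infected with P. falciparum carrying an integrated firefly luciferase reporter (2% hematocrit, 0.1% parasitemia final) were exposed to compounds in RPMI 1640/0.5% Albumax for 48 h at 37 C, 5% CO2. Growth inhibition was scored as reduced luminescence.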
# [10] = qHTS Assay for Identification of Small Molecule Agonists for Thrombopoietin (TPO) Signaling Pathway (AID 917); further: potency means the concentration at half of the fitted maximal effect
# Method in brief: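 IL-3-dependent murine pro-B Ba/F3 cells, stably transfected with human TPO receptor and GpIIb-promoter luciferase, are incubated 24 hrs at 37 C with test compound and 26 pM TPO; luciferase signal is read after 10 min at room temperature.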
# [11] = NFAT Signaling Pathway (AID 444; active means well fitted curve in either direction with a large enough effect, not every such curve was filed as active; inconclusive means small, poorly fitted or top-dose-only effect, or another doubt;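 further: carbachol stimulus at about its EC50 of 1 µM final; on the % scale 0 is the no-effect control and ±100 the full control effect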); conditions: Jurkat NFAT-bla M1, carbachol, beta-lactamase ratio, 5 h; at 7.69 µM (top of the series) unless noted
# Method in brief: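 Jurkat cells with NFAT-driven β-lactamase reporter and co-expressed M1 receptor, stimulated with carbachol (final 1 uM, ~EC50), compound titration, 5 h at 37 °C. CCF4 loaded 1 h at RT; 460/530 nm ratio gave %activity and AC50.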
# [12] = target: Muscarinic acetylcholine receptor M1 (Rattus norvegicus) (UniProt P08482); experiment: qHTS Assay for Antagonists of Acetylcholine Muscarinic M1 Receptor: Measurement of IP-One Response (AID 944); further: potency means the concentration at half of the fitted maximal effect; nearly all actives have a fitted effect of over 75% in size
# [13] = target: Thioredoxin reductase 1, cytoplasmic (Rattus norvegicus) (UniProt O89049); experiment: qHTS Assay for Inhibitors of Mammalian Selenoprotein Thioredoxin Reductase 1 (TrxR1) (AID 488773); conditions: Potency: inhibition; further: potency means the concentration at half of the fitted maximal effect; nearly all actives have a fitted effect of over 40% in size
# Method in brief: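 Steps: enzyme (90 nM) plus NADPH (400 uM final), 5 min at ~22 deg C; compound added, 15 min; selenite (400 uM final) added; fluorescence followed for 8 min. Concentration-response curves derived from the normalized delta values.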
# [14] = target: D(1A) dopamine receptor (Homo sapiens) (UniProt P21728); experiment: HTS Assay for Allosteric Agonists of the Human D1 Dopamine Receptor: Primary Screen for Antagonists (AID 488983);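 further: calcium flux response to an EC80 dopamine challenge measured with no-wash dye; nearly all actives have a fitted effect of over 65% in size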; further: potency means the concentration at half of the fitted maximal effect; on activity change, negative = inhibition: on the % scale 0 is the no-effect control and ±100 the full control effect
# Method in brief: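 Tetracycline-induced HEK293 T-REx cells expressing force-coupled D1 were plated overnight at 30 C, dye-loaded for calcium, and read kinetically. Compounds were pinned in, then an EC80 dopamine challenge followed after 180 s to reveal antagonism.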
# [15] = Cytometric Cell-Based qHTS for Inhibitors of the mTORC1 Signaling Pathway in MEF (Tsc2-/-, p53-/-) Cells (AID 2660); further: potency means the concentration at half of the fitted maximal effect
# Method in brief: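 Percent of cells positive for normalized phospho-S6 staining is reported, with the cutoff set from rapamycin (7.5 nM) versus DMSO wells. Tsc2-/-, p53-/- MEFs received compound for 24 hrs.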
# [16] = High Content Imaging Cell-Based qHTS for Inhibitors of the mTORC1 Signaling Pathway in MEF Cells (AID 2667); further: potency means the concentration at half of the fitted maximal effect
# Method in brief: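 WT MEFs (Tsc2-/-, p53-/- re-expressing Tsc2), in DMEM + 10% FBS, were treated with compound for 24 h at 37 C. Cells were then fixed and stained for phospho-rpS6 Ser235/236 with propidium iodide as cell count. Values are % positive cells, with thresholds set against rapamycin-treated cells.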
# [17] = target: D(1A) dopamine receptor (Homo sapiens) (UniProt P21728); experiment: HTS Assay for Allosteric Agonists of the Human D1 Dopamine Receptor: Primary Screen for Agonists (AID 488981); further: potency means the concentration at half of the fitted maximal effect; on activation: 0% is about no effect
# Method in brief: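 Tetracycline-induced HEK293 Trex D1 cells with forced coupling to calcium, loaded with no-wash calcium dye; kinetic fluorescence read 180 s after compound addition for agonism, then a further 180 s after an EC20 dopamine challenge for potentiation.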
# [18] = target: Papain (Carica papaya) (UniProt P00784); experiment: Primary qHTS assay for inhibitors of the protease papain (AID 1645873)
# [19] = qHTS Validation Assay to Find Inhibitors of Chronic Active B-Cell Receptor Signaling (AID 485345; active means well fitted curve in the direction sought with a large enough effect in the main read-out, with a control signal flat, not every such curve was filed as active; inconclusive means small, poorly fitted or top-dose-only effect, or effect the other way, or a change in a side signal; inactive means no such curve, though single readings can be large or run the other way;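 further: 0% = untreated basal cells and 100% = 10 µM MG-132 proteasome inhibitor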); conditions: ABC-DLBCL cells, chronic BCR signaling reporter; activity change: CBG luciferase, at 46.1 µM (top of the series)
# Method in brief: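 TMD8 ABC-DLBCL cells stably carrying doxycycline-inducible IkappaBalpha–green luciferase fusion plus unfused red luciferase; compounds 46 uM to 3 nM, 4 h at 37C with doxycycline. Corrected green/red luminescence ratio normalized to 10 uM MG-132 and basal cell wells; curves fitted.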
# Tags describe the fitted curve by direction and shape or compound fluorescence and quenching.
# UniProt Q07343, sequence (Q07343 whole entry, looked up): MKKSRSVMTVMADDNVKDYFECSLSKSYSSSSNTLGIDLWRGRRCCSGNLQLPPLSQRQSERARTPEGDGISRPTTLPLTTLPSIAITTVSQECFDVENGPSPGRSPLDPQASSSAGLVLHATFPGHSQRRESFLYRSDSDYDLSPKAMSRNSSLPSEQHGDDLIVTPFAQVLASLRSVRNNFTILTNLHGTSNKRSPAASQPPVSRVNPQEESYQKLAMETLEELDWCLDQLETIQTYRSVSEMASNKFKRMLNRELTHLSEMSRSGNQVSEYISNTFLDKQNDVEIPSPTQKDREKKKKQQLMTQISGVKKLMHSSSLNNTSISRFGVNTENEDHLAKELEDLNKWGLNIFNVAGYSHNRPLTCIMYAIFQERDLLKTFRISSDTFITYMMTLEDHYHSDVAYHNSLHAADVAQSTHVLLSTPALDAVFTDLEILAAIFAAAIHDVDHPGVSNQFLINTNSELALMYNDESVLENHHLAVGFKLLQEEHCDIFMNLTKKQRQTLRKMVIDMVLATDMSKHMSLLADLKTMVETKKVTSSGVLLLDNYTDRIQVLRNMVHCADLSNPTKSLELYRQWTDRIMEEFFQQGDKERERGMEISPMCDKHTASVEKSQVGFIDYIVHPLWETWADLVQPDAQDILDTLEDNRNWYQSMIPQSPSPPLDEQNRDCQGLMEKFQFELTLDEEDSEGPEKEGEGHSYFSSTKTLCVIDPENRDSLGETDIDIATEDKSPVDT
# UniProt P20594, sequence (P20594 whole entry, looked up): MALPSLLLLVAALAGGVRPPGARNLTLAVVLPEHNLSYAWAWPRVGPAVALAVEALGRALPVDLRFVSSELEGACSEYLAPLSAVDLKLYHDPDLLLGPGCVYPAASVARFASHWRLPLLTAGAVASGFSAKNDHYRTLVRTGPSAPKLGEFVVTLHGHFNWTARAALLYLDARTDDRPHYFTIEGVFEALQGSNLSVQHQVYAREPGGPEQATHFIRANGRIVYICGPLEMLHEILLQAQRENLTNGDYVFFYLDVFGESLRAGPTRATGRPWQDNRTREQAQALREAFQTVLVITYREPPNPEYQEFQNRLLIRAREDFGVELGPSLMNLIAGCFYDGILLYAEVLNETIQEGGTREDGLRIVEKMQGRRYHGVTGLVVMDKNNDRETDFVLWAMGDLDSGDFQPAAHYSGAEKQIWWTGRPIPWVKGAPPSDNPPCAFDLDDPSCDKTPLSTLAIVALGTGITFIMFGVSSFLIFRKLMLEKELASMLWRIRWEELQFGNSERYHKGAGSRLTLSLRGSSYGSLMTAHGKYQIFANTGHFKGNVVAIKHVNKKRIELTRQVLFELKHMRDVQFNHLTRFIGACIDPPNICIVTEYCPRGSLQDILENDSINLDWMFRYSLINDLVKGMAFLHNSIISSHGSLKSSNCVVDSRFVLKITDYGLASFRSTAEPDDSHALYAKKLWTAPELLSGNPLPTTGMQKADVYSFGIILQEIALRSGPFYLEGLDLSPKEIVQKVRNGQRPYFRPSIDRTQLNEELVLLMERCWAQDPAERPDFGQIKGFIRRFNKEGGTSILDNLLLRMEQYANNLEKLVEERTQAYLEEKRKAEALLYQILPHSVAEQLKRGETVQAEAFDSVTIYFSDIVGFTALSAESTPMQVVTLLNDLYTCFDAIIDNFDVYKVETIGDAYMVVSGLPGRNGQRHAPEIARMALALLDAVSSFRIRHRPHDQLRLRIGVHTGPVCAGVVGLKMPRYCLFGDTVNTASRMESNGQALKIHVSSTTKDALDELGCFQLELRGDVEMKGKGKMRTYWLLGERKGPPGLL
# UniProt P21728, sequence (P21728 whole entry, looked up): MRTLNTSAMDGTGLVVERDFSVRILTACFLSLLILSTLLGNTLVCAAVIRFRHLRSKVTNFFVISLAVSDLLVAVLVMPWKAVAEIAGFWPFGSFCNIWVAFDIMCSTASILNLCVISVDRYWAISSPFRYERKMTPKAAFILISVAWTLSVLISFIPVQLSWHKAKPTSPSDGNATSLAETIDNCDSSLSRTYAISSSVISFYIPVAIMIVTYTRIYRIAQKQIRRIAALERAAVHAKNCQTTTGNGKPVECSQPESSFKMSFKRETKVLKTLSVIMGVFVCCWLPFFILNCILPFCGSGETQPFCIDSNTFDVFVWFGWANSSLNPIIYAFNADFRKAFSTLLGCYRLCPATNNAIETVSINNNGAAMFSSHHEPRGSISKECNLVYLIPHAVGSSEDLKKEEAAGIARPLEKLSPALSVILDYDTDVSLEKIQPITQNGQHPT
# UniProt O89049, sequence (O89049 whole entry, looked up): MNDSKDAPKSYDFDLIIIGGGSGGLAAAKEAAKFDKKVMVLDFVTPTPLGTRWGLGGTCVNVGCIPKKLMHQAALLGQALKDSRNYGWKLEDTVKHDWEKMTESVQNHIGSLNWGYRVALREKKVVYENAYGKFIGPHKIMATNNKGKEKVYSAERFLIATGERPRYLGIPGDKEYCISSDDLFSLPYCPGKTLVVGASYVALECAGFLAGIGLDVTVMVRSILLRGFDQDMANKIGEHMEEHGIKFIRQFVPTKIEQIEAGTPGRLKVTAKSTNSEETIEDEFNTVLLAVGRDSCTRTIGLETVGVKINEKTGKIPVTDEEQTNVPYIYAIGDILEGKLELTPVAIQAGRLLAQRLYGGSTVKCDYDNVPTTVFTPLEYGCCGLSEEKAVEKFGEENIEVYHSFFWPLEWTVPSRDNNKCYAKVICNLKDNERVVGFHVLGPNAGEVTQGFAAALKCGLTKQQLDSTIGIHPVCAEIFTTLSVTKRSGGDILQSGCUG
# UniProt P78324, sequence (P78324 whole entry, looked up): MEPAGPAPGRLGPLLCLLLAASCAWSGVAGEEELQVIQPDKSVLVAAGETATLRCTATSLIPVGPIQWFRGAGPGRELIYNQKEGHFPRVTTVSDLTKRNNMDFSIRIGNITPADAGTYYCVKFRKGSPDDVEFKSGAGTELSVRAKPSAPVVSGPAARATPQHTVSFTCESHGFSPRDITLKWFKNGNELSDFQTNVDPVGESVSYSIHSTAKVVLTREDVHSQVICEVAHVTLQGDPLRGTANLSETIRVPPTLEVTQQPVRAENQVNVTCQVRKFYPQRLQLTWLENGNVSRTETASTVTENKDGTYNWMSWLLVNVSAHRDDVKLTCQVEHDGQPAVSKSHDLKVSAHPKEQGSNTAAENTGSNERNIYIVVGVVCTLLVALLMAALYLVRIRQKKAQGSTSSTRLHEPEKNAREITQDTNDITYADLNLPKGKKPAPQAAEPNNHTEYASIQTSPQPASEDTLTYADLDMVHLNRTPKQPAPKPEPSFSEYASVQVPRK
# UniProt P78324, sequence (Q08722 whole entry, looked up): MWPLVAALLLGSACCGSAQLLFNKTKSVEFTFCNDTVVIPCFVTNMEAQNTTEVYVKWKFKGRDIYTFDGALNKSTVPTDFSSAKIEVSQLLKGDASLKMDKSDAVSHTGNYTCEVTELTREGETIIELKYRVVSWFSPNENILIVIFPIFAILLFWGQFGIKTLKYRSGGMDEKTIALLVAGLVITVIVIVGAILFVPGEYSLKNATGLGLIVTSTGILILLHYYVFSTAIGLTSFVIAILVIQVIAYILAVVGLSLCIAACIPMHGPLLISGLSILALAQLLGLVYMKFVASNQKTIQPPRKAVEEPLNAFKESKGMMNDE
# UniProt Q13526, sequence (Q13526 whole entry, looked up): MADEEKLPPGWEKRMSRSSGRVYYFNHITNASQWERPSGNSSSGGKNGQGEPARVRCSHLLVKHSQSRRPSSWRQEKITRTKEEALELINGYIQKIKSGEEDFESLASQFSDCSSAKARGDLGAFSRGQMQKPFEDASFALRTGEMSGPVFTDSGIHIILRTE
# UniProt Q99549, sequence (Q99549 whole entry, looked up): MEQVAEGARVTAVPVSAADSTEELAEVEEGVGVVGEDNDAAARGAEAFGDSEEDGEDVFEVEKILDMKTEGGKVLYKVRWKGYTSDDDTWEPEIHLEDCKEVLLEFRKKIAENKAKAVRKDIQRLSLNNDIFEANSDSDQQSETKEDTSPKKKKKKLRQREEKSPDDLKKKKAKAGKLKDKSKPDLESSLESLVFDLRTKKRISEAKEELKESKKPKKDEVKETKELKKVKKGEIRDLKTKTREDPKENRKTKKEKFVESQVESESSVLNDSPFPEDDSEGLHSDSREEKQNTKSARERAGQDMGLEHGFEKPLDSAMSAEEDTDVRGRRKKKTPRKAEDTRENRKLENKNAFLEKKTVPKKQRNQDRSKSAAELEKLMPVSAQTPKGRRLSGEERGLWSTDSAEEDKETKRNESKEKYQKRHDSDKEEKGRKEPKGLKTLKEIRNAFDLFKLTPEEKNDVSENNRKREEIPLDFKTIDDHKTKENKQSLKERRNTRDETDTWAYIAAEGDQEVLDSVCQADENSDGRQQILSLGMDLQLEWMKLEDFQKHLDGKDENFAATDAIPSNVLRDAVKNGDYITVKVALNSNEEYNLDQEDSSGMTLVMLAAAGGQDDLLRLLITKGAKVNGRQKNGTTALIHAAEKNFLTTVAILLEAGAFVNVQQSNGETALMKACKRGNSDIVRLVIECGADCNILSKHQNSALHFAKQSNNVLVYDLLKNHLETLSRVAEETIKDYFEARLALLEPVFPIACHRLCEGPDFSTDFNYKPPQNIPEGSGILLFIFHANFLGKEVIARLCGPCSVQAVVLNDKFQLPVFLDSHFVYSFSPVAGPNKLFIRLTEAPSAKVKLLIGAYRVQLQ
# UniProt P00784, sequence (P00784 whole entry, looked up): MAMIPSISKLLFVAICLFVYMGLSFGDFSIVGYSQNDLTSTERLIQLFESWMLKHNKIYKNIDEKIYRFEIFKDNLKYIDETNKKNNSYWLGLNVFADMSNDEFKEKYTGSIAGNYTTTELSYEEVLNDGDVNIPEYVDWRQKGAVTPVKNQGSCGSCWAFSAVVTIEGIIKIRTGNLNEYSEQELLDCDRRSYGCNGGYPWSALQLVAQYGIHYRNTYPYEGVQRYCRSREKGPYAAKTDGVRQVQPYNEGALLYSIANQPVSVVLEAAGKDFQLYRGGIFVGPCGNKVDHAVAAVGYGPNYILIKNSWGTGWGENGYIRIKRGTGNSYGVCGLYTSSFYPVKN
compound,measurement,setting,value
Cc1cc(C)cc(C(=O)OC2C[C@H]3CC[C@@H](C2)N3C)c1 (stereo partly drawn),Potency,[1],"inconclusive: 7.55 µM [rising, partial curve]"
O=C1NC(=O)c2c1c1c3ccccc3[nH]c1c1[nH]c3ccccc3c21,Potency,[2],"inconclusive: 4.11 µM [inhibitor, partial curve]"
CC(=O)c1c(O)c(C)c(O)c(Cc2c(O)c3c(c(C(=O)/C=C/c4ccccc4)c2O)OC(C)(C)C=C3)c1O,Potency,[3],"inconclusive: 44.7 µM [inhibitor, partial curve] and inconclusive: 18.9 µM [inhibitor, single point]"
same,Potency,[4],"inconclusive: 2.59 µM [activator, partial curve]"
same,Potency,[5],"inconclusive: 37.9 µM [falling, single point]"
same,Potency,[2],"inconclusive: 29.1 µM [inhibitor, single point]"
same,Potency,[6],"inconclusive: 26.1 µM [inhibitor, single point]"
same,Potency,[7],active: 16.5 µM
COCC1OC(=O)c2coc3c2C1(C)C1=C(C3=O)C2CCC(=O)C2(C)CC1OC(C)=O (stereo not drawn),Potency,[2],active: 20.6 µM
COC[C@@H]1OC(=O)c2coc3c2[C@]1(C)C1=C(C3=O)[C@H]2CC[C@H](O)[C@@]2(C)C[C@@H]1OC(C)=O,Potency,[2],"inconclusive: 29.1 µM [inhibitor, single point]"
c1cc2c(cc1C1OC[C@@H]3C(c4ccc5c(c4)OCO5)OC[C@H]13)OCO2 (stereo partly drawn),Potency,[2],"inconclusive: 23.1 µM [inhibitor, single point]"
COC[C@@H]1OC(=O)/C(=C\N(C)CCCN(C)C)C2=C(O)C(=O)C3=C([C@@H](OC(C)=O)C[C@@]4(C)[C@@H]3CC[C@@H]4O)[C@@]21C,Potency,[2],active: 13 µM
C=C(C)[C@@H]1CCC(C)=C[C@H]1c1c(O)cc(CCCCC)cc1O,Potency,[2],"inconclusive: 25.9 µM [inhibitor, single point]"
same,Potency,[8]; HiBiT,"inconclusive: 24.9 µM [inhibitor, partial curve]"
same,"activity change, negative = inhibition","[8]; Viability, at 45.9 µM (top of the series)",inactive: 5.14%
CC(C)NC(C)Cc1ccc(I)cc1 (stereo not drawn),Potency,[9],"inconclusive: 18.5 µM [inhibitor, single point]"
CC(=O)O[C@@H]1CC2C(C)(C)C(=O)C=C[C@]2(C)C2CC[C@]3(C)C(=CC(=O)O[C@H]3c3ccoc3)[C@@]21C (stereo partly drawn),Potency,[2],"inconclusive: 29.1 µM [inhibitor, single point]"
O=C1NC(=O)c2c1c1c3ccccc3n3c1c1c2c2ccccc2n1C1CCC3O1,Potency,[2],"inconclusive: 8.2 µM [inhibitor, partial curve, poor fit]"
CCCCc1ccc(C(=O)O)nc1,Potency,[1],"inconclusive: 9.51 µM [rising, partial curve, poor fit]"
same,Potency,[10],"inconclusive: 2 µM [inhibitor, partial curve]"
same,Potency,[7],active: 16.5 µM
O=C(NCCCNc1nc(Nc2ccc(N3CCOCC3)cc2)ncc1C1CC1)C1CCC1,Potency,[2],active: 10.3 µM
COc1ccc2c(c1)[nH]c1c(C)nccc12,"activity change, negative = inhibition",[11],inconclusive: -50.4% [inhibitor] [at 17.2 µM]
same,Potency,[2],"inconclusive: 29.1 µM [inhibitor, single point]"
CC(C)(C)c1cc(C=C(C#N)C#N)cc(C(C)(C)C)c1O,"activity change, negative = inhibition",[11],active: -108% [at 38 µM]
same,Potency,[1],"inconclusive: 0.631 µM [rising, full curve]"
same,Potency,[10],"inconclusive: 1.58 µM [inhibitor, full curve]"
same,Potency,[12],active: 1.41 µM
same,Potency,[9],active: 1.47 µM
same,Potency,[13],active: 16.8 µM
same,Potency,[14],"inconclusive: 1.12 µM [inhibitor, full curve]"
same,Potency,[4],"inconclusive: 29.1 µM [activator, single point]"
same,Potency,[5],inactive
same,Potency,[6],active: 0.414 µM
same,Potency,[8]; HiBiT,"inconclusive: 8.83 µM [inhibitor, full curve]"
N[C@@H](Cn1oc(=O)[nH]c1=O)C(=O)O,Potency,[1],"inconclusive: 19 µM [inhibitor, single point]"
same,Potency,[14],inactive
same,Potency,[6],inactive
c1ccc2c(c1)[I+]c1ccccc1-2,"activity change, negative = inhibition",[11],inactive: -17.4% [at 38 µM]
same,Potency,[10],"inconclusive: 0.0398 µM [inhibitor, full curve]"
same,Potency,[15],"inconclusive: 16.5 µM [falling, partial curve, poor fit]"
same,Potency,[16],active: 0.0585 µM
same,Potency,[9],active: 0.147 µM
same,Potency,[13],"inconclusive: 23.8 µM [inhibitor, single point]"
same,Potency,[17],inactive
same,Potency,[4],"inconclusive: 0.651 µM [activator, full curve, poor fit]"
same,Potency,[6],active: 0.927 µM
same,Potency,[18],"inconclusive: 15.8 µM [inhibitor, single point]"
same,Potency,[8]; Viability,"inconclusive: 6.25 µM [cytotoxic, partial curve]"
Ic1ccccc1CNC1C2CCN(CC2)C1C(c1ccccc1)c1ccccc1 (stereo not drawn),Potency,[15],"inconclusive: 26.1 µM [falling, single point]"
same,Potency,[16],active: 6.56 µM
same,activity change,[19],inconclusive: 32.9%
same,Potency,[9],"inconclusive: 18.5 µM [inhibitor, single point]"
same,Potency,[17],"inconclusive: 11.2 µM [activator, partial curve]"
same,Potency,[14],"inconclusive: 31.6 µM [inhibitor, single point]"
same,Potency,[6],"inconclusive: 26.1 µM [inhibitor, single point]"
same,Potency,[8]; HiBiT,"inconclusive: 44.3 µM [inhibitor, single point]"
same,Potency,[8]; Viability,"inconclusive: 39.4 µM [cytotoxic, single point]"
